Assay results reported in US20190233528A1 (published 2019).

Biological target: T1, recombinant human CD70 (AviTag, polyhistidine tag and chicken tenascin trimerization domain fused to the … (chicken; human, UniProt P10039 110-139, limits assumed)
T1 construct: domain: trimerization domain; Expressed in Expi293, purified by IMAC and SEC; Copies 3 is inferred from the trimerization domain; not shown: AviTag; polyhistidine tag
T1 sequence: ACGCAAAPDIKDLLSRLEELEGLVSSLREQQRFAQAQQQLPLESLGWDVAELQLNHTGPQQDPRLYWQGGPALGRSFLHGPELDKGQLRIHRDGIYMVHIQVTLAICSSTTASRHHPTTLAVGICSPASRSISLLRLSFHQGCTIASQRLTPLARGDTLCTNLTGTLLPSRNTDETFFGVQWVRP
Experiment: SPR (Biacore 8K, 37 C): CD70 captured via anti-AviTag antibody on C1 chip, scFv-Fc as analyte; 1:1 Langmuir fit
Protocol: The antibody binding kinetics were determined by surface plasmon resonance (Biacore 8K, GE Healthcare Bio-Sciences, Pittsburgh Pa.) at 37° C. in HBS-T+ (0.01 M HEPES pH 7.4, 0.15 M NaCl, 0.05% v/v Tween20, 1 mg/mL BSA). Recombinant human CD70 diluted in HBS-T+ was captured on a C1 chip immobilized with an anti-AviTag™ antibody. Purified anti-CD70 scFv-Fc fusions were serially diluted into HBS-T+, injected at 30 uL/min for 2-4 min, dissociation monitored for 10 min then the surface regenerated with 75 mM phosphoric acid between injections. Buffer cycles were collected for each anti-CD70 scFv-Fc fusion for double-referencing purposes (double-referencing as described in Myszka, D. G. Improving biosensor analysis. J. Mol. Recognit. 12, 279-284 (1999)). Kinetic association rates (kₒₙ) and dissociation rates (koff) were obtained simultaneously by fitting the double-referenced sensorgrams globally to a 1:1 Langmuir with mass transport model using Biacore 8K Evaluation Software (GE Healthcare Bio-Sciences, Pittsburgh Pa.) then used to calculate an equilibrium dissociation constant (KD) from the kinetic rate constants (KD=koff/kₒₙ). The data was fit to a 1:1 steady state affinity model using Biacore 8K Evaluation Software to determine a steady state equilibrium dissociation constant (SS KD) as needed.

B1: 8F8 anti-CD70 scFv-Fc fusion (Fc fusion)
chain: QVQLQESGPGLVQPSETLSLTCTVSGGSISYYYWSWIRQPPGKGLEWIGNINYMGNTIYNPSLKSRVTISVDTSKDQFSLKLTSVSAADTAVYYCVRAEGSLDAFDFWGQGTLVAVSLGGGGSGGGGSGGGGSGGGGS[gap - about 100 residues]CTFGQGTKLEIK
notes: scFv-Fc expressed in Expi293; not shown: part of the hinge and Fc from a modified human IgG2
Kd: 2.3 nM | koff: 0.000793 s⁻¹ | kon: 348000 M⁻¹ s⁻¹ | t1/2: 14.6 min
